Data: the supplement of paper PMC8728848
The other results are listed elsewhere or left out.

Key:
Assay in all cases: glycan array binding signal (z-score within array); higher = stronger binding
Details in all cases: glycan notation: IUPAC condensed, linker removed
[1] = molecular target: Neu5Ac(a2-3)Gal(b1-4)[Fuc(a1-3)]GlcNAc(b1-3)Gal
Outline: (§1)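 Glycan array binding is given as a within-array Z-score, which can be read as non-binding when negative. The arrays, 3228 of them, came from the Consortium for Functional Glycomics database and were retained only where the protein sequence was available. Z-scores were averaged across arrays of the same protein sequence at different concentrations or buffers and across linkers.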

[2] = molecular target: Neu5Ac(a2-3)Gal(b1-4)[Fuc(a1-3)]GlcNAc(b1-3)Gal(b1-4)GlcNAc
Outline: as §1

[3] = molecular target: Neu5Ac(a2-3)Gal(b1-4)[Fuc(a1-3)]GlcNAc(b1-3)Gal(b1-4)[Fuc(a1-3)]GlcNAc(b1-3)Gal(b1-4)[Fuc(a1-3)]GlcNAc
Outline: as §1

[4] = molecular target: Neu5Ac(a2-3)Gal(b1-4)[Fuc(a1-3)]GlcNAc(b1-3)GalNAc
Outline: as §1

[5] = molecular target: Neu5Ac(a2-3)Gal(b1-4)[Fuc(a1-3)]GlcNAc(b1-6)[Gal(b1-3)]GalNAc
Outline: as §1

[6] = molecular target: Neu5Ac(a2-3)Gal(b1-4)[Fuc(a1-3)]GlcNAc6S
Outline: as §1

[7] = molecular target: Neu5Ac(a2-3)Gal6S(b1-4)GlcNAc
Outline: as §1

[8] = molecular target: Neu5Ac(a2-3)Gal6S(b1-4)[Fuc(a1-3)]GlcNAc
Outline: as §1

[9] = molecular target: Neu5Ac(a2-3)GalNAc
Outline: as §1

[10] = molecular target: Neu5Ac(a2-3)GalNAc(b1-4)GlcNAc
Outline: as §1

[11] = molecular target: Neu5Ac(a2-3)[GalNAc(b1-4)]Gal(b1-4)Glc
Outline: as §1

[12] = molecular target: Neu5Ac(a2-3)[GalNAc(b1-4)]Gal(b1-4)GlcNAc
Outline: as §1

[13] = molecular target: Neu5Ac(a2-3)[GalNAc(b1-4)]Gal(b1-4)GlcNAc(b1-3)GalNAc
Outline: as §1

[14] = molecular target: Neu5Ac(a2-3)[Neu5Ac(a2-6)]GalNAc
Outline: as §1

[15] = molecular target: Neu5Ac(a2-6)Gal
Outline: as §1

[16] = molecular target: Neu5Ac(a2-6)Gal(b1-3)GlcNAc(b1-3)[Gal(b1-4)GlcNAc(b1-6)]Gal(b1-4)Glc
Outline: as §1

[17] = molecular target: Neu5Ac(a2-6)Gal(b1-4)Glc
Outline: as §1

[18] = molecular target: Neu5Ac(a2-6)Gal(b1-4)GlcNAc
Outline: as §1

[19] = molecular target: Neu5Ac(a2-6)Gal(b1-4)GlcNAc(b1-2)Man(a1-3)Man(b1-4)GlcNAc(b1-4)GlcNAc
Outline: as §1

[20] = molecular target: Neu5Ac(a2-6)Gal(b1-4)GlcNAc(b1-2)Man(a1-3)[Gal(b1-4)GlcNAc(b1-2)Man(a1-6)]Man(b1-4)GlcNAc(b1-4)GlcNAc
Outline: as §1

[21] = molecular target: Neu5Ac(a2-6)Gal(b1-4)GlcNAc(b1-2)Man(a1-3)[GlcNAc(b1-2)Man(a1-6)]Man(b1-4)GlcNAc(b1-4)GlcNAc
Outline: as §1

[22] = molecular target: Neu5Ac(a2-6)Gal(b1-4)GlcNAc(b1-2)Man(a1-3)[GlcNAc(b1-2)Man(b1-4)GlcNAc(b1-2)Man(a1-6)]Man(b1-4)GlcNAc(b1-4)GlcNAc
Outline: as §1

[23] = molecular target: Neu5Ac(a2-6)Gal(b1-4)GlcNAc(b1-2)Man(a1-3)[Man(a1-6)]Man(b1-4)GlcNAc(b1-4)GlcNAc
Outline: as §1

[24] = molecular target: Neu5Ac(a2-6)Gal(b1-4)GlcNAc(b1-2)Man(a1-3)[Neu5Ac(a2-6)Gal(b1-4)GlcNAc(b1-2)Man(a1-6)]Man(b1-4)GlcNAc(b1-4)GlcNAc
Outline: as §1

[25] = molecular target: Neu5Ac(a2-6)Gal(b1-4)GlcNAc(b1-2)Man(a1-3)[Neu5Ac(a2-6)Gal(b1-4)GlcNAc(b1-2)Man(a1-6)]Man(b1-4)GlcNAc(b1-4)[Fuc(a1-6)]GlcNAc
Outline: as §1

[26] = molecular target: Neu5Ac(a2-6)Gal(b1-4)GlcNAc(b1-2)Man(a1-6)Man(b1-4)GlcNAc(b1-4)GlcNAc
Outline: as §1

[27] = molecular target: Neu5Ac(a2-6)Gal(b1-4)GlcNAc(b1-2)Man(a1-6)[Gal(b1-4)GlcNAc(b1-2)Man(a1-3)]Man(b1-4)GlcNAc(b1-4)GlcNAc
Outline: as §1

[28] = molecular target: Neu5Ac(a2-6)Gal(b1-4)GlcNAc(b1-2)Man(a1-6)[GlcNAc(b1-2)Man(a1-3)]Man(b1-4)GlcNAc(b1-4)GlcNAc
Outline: as §1

[29] = molecular target: Neu5Ac(a2-6)Gal(b1-4)GlcNAc(b1-2)Man(a1-6)[Man(a1-3)]Man(b1-4)GlcNAc(b1-4)GlcNAc
Outline: as §1

[30] = molecular target: Neu5Ac(a2-6)Gal(b1-4)GlcNAc(b1-3)Gal(b1-3)GlcNAc
Outline: as §1

[31] = molecular target: Neu5Ac(a2-6)Gal(b1-4)GlcNAc(b1-3)Gal(b1-4)GlcNAc
Outline: as §1

[32] = molecular target: Neu5Ac(a2-6)Gal(b1-4)GlcNAc(b1-3)Gal(b1-4)GlcNAc(b1-3)Gal(b1-4)GlcNAc
Outline: as §1

[33] = molecular target: Neu5Ac(a2-6)Gal(b1-4)GlcNAc(b1-3)Gal(b1-4)[Fuc(a1-3)]GlcNAc(b1-3)Gal(b1-4)[Fuc(a1-3)]GlcNAc
Outline: as §1

[34] = molecular target: Neu5Ac(a2-6)Gal(b1-4)GlcNAc(b1-3)GalNAc
Outline: as §1

[35] = molecular target: Neu5Ac(a2-6)Gal(b1-4)GlcNAc(b1-3)[Neu5Ac(a2-6)Gal(b1-4)GlcNAc(b1-6)]GalNAc
Outline: as §1

[36] = molecular target: Neu5Ac(a2-6)Gal(b1-4)GlcNAc(b1-6)GalNAc
Outline: as §1

[37] = molecular target: Neu5Ac(a2-6)Gal(b1-4)GlcNAc(b1-6)[Gal(b1-3)GlcNAc(b1-3)]Gal(b1-4)Glc
Outline: as §1

[38] = molecular target: Neu5Ac(a2-6)Gal(b1-4)GlcNAc6S
Outline: as §1

B1: RVL (Remusatia vivipara), B5LYJ9 (protein)
chain: MAKLLLFLLPAILGLLVPRSAVALGTNYLLSGQTLDTEGHLKNGDFDLVMQDDCNLVLYNGNWQSNTANNGRDCKLTLTDYGELVIKNGDGSTVWKSGAQSVKGNYAAVVHPDGRLVVLGPSVFKIDPWVRGLNSLRFRNIPFTNNLLFSGQVLYGDGRLTAKNHQLVMQGDCNLVLYGGKYGWQSNTHGNGEHCFLRLNHKGELIIKDDDFKTIWSSRSSSKQGEYVLILQDDGFGVIYGPAIFETSSKRSIAAS
- glycan array binding signal (z-score) [1]: -0.116
- glycan array binding signal (z-score) [2]: -0.268
- glycan array binding signal (z-score) [3]: -0.061
- glycan array binding signal (z-score) [4]: -0.181
- glycan array binding signal (z-score) [5]: -0.058
- glycan array binding signal (z-score) [6]: -0.311
- glycan array binding signal (z-score) [7]: -0.184
- glycan array binding signal (z-score) [8]: 0.044
- glycan array binding signal (z-score) [9]: -0.238
- glycan array binding signal (z-score) [10]: -0.3
- glycan array binding signal (z-score) [11]: -0.203
- glycan array binding signal (z-score) [12]: -0.157
- glycan array binding signal (z-score) [13]: 1.58
- glycan array binding signal (z-score) [14]: -0.142
- glycan array binding signal (z-score) [15]: -0.192
- glycan array binding signal (z-score) [16]: -0.236
- glycan array binding signal (z-score) [17]: -0.296
- glycan array binding signal (z-score) [18]: -0.278
- glycan array binding signal (z-score) [19]: -0.05
- glycan array binding signal (z-score) [20]: -0.115
- glycan array binding signal (z-score) [21]: -0.184
- glycan array binding signal (z-score) [22]: -0.258
- glycan array binding signal (z-score) [23]: -0.305
- glycan array binding signal (z-score) [24]: -0.073
- glycan array binding signal (z-score) [25]: -0.474
- glycan array binding signal (z-score) [26]: -0.159
- glycan array binding signal (z-score) [27]: 0.021
- glycan array binding signal (z-score) [28]: -0.207
- glycan array binding signal (z-score) [29]: -0.051
- glycan array binding signal (z-score) [30]: -0.229
- glycan array binding signal (z-score) [31]: 0.044
- glycan array binding signal (z-score) [32]: -0.02
- glycan array binding signal (z-score) [33]: -0.077
- glycan array binding signal (z-score) [34]: -0.218
- glycan array binding signal (z-score) [35]: 0.127
- glycan array binding signal (z-score) [36]: -0.2
- glycan array binding signal (z-score) [37]: 0.033
- glycan array binding signal (z-score) [38]: -0.224
